The other results are listed elsewhere or left out.

In this test the target is T1, OsWOX13 (Oryza sativa, UniProt Q5QMM3 1-267).
T1 sequence: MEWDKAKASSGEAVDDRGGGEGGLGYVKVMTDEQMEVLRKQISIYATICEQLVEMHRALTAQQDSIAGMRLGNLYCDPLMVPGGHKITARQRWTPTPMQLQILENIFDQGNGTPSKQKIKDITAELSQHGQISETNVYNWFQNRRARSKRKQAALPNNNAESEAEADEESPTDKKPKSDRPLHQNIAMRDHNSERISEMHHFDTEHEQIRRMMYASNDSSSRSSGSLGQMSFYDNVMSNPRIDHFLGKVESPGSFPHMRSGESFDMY
The experiment in a line: protein-binding microarray (RPBM); PBS, 2% BSA, 51.3 ng/ul salmon testes DNA, 50 uM zinc acetate, 200 nM TF, 25 C, 1 h; high values mean tight binding. The conditions noted are these: protein: recombinant; tags: N-terminal polyhistidine and DsRed monomer fusion (pET32a); label: CyDye5-dUTP incorporated in the synthesized complementary strand; 3' TTTTT single-stranded linker to array surface; dsDNA, one strand shown. An outline of the steps: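 The binding signal is fluorescence intensity per array feature (arbitrary units). Readings came from an Axon 4000B scanner after a washed, 2% BSA-blocked, double-stranded custom Agilent array had been incubated for 1 h at 25 °C with 200 nM protein and 50 µM zinc acetate. The protein was a Ni–NTA-purified transcription factor fused N-terminally to polyhistidine and DsRed, expressed in E. coli BL21-CodonPlus.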
As for “GCAATCAGATCGTAGATTAGATAAATAATTTACGAGAAAACGGAGTCACCTAGTGCAG”, the binding signal is 9530 fluorescence intensity (a.u.).
Regarding “CCCTCATTTATTGACTGCTACTAGTAGTACCACTATAGAACGGAGTCACCTAGTGCAG”, the binding signal is 7970 fluorescence intensity (a.u.).
“TTAATTAATTGCAAATTGGAGTGCATGACCAGATGCTAATCGGAGTCACCTAGTGCAG”: the binding signal was 29700 fluorescence intensity (a.u.).
Under “ACAAATTAATTAGGCTAAATAAATTCGTCTCGTGGTTTACCGGAGTCACCTAGTGCAG” stands 49700 fluorescence intensity (a.u.); under “ATCCACTCAATTACACCCTCTTCCAACATGATTTAGACCGCGGAGTCACCTAGTGCAG”, 6510 fluorescence intensity (a.u.); under “GTTATAATATAATTACACTTTAATTATGCTATAATTACATCGGAGTCACCTAGTGCAG”, 6560 fluorescence intensity (a.u.).
Take “GATTAATGCCAGTTATTATTTTAAACGAATCTCGTTGATCCGGAGTCACCTAGTGCAG”: the binding signal was 5800 fluorescence intensity (a.u.).
For “TTGCAAAATTTAAAATTATGTTGTCATTGTAATATATTTTCGGAGTCACCTAGTGCAG”, the binding signal was 3860 fluorescence intensity (a.u.).
On to “ATTTCTTAATTTAATGCTATTCTGACTCCTTGCACCTCTACGGAGTCACCTAGTGCAG”, for which the binding signal was 12300 fluorescence intensity (a.u.).
In the case of “TAGTACTACTCATCACCAATCAGCTGCCACACATGCATGGCGGAGTCACCTAGTGCAG”, the binding signal is 5430 fluorescence intensity (a.u.).
Turning to “ATTTTCGGTTTATTTTAATTAAAACTTAATTAATCATACGCGGAGTCACCTAGTGCAG”, the binding signal is 19300 fluorescence intensity (a.u.).
As for “TACTAAACTTTAGGTGTAAATTAGCACTTGGCAAACTGGTCGGAGTCACCTAGTGCAG”, the binding signal is 4250 fluorescence intensity (a.u.).
“GAAACAAACATAAAATGGTGTAAATTACCTGGAATTTGTGCGGAGTCACCTAGTGCAG”: the binding signal is 3500 fluorescence intensity (a.u.).
Regarding “CCGGCAAATCATGAAATTGGCGTGTCACCATGGACGTCTCCGGAGTCACCTAGTGCAG”, the binding signal was 8660 fluorescence intensity (a.u.).
Turning to “ATTAAACTACTCTAAATTTAAATAATTTTGTAGAGAAAAGCGGAGTCACCTAGTGCAG”, the binding signal is 8380 fluorescence intensity (a.u.).
With “CATGATGGGCTGAAACTTTTAGGCAACTACGAGAATTGGGCGGAGTCACCTAGTGCAG”, the binding signal was 10700 fluorescence intensity (a.u.).
“CATACATATGTAATTTACTTCGATTCGATTAAATTGGCAGCGGAGTCACCTAGTGCAG”: the binding signal was 7090 fluorescence intensity (a.u.).
For “CATGTAATTGTACAAATCTACACAATTGAAAGGCATCTTCCGGAGTCACCTAGTGCAG”, the binding signal is 27900 fluorescence intensity (a.u.).
Turning to “ACAGCCAATTATTACATAATTCACATAGAAGAAAACTCACCGGAGTCACCTAGTGCAG”, the binding signal is 12500 fluorescence intensity (a.u.).
As to “TTAGAATGATTTACATACTGGAGTACTAGTAGTAATTCTGCGGAGTCACCTAGTGCAG”, the binding signal was 19700 fluorescence intensity (a.u.).
Consider “GGCTAATTCGATCTGACATGGCACCGATGTGGGCGCTTACCGGAGTCACCTAGTGCAG”, for which the binding signal was 4170 fluorescence intensity (a.u.).
Consider “CAACAAATTGGCCCACTATGAAACGGGAATGAGGCCTACGCGGAGTCACCTAGTGCAG”, for which the binding signal is 15400 fluorescence intensity (a.u.).
“TATAATTGAAGGCACCGGATGGATGCAATCAACAAAACAACGGAGTCACCTAGTGCAG”: the binding signal is 16900 fluorescence intensity (a.u.).
In the case of “TTGCAATGAATGGACAAGATTGATGTACTACAGGACCCAACGGAGTCACCTAGTGCAG”, the binding signal is 19400 fluorescence intensity (a.u.).
Consider “AGGCATTGATGGACGAGTCACGGCGTGCCGCACCGGCGTGCGGAGTCACCTAGTGCAG”, for which the binding signal was 6840 fluorescence intensity (a.u.).
With “TTTTAATTATTTTCTATGTGAGACTGACATGTGGGTCCCGCGGAGTCACCTAGTGCAG” the figure was 24700 fluorescence intensity (a.u.); with “TGCATGTGATTGAAACATCTTTTGATAAATCAATGAAACACGGAGTCACCTAGTGCAG”, 31000 fluorescence intensity (a.u.); with “ACTAATTAAACCGGACAGTTGTTGTTGATGATGATATACGCGGAGTCACCTAGTGCAG”, 30200 fluorescence intensity (a.u.).
Under “TATTTAATTGCAACGAATACAATAGTTTAATCGGATTATACGGAGTCACCTAGTGCAG” stands 9360 fluorescence intensity (a.u.); under “AGACAATATAATTAATAAATATACCATAGAGGAGTTCATGCGGAGTCACCTAGTGCAG”, 3410 fluorescence intensity (a.u.); under “CGTAATAATTAAAAGCTTAATAAACGTTTTCACATGTGCGCGGAGTCACCTAGTGCAG”, 24100 fluorescence intensity (a.u.).
Consider “ATATAACAGTTTATTCACAAATTATTTTCCGTTTGCAAATCGGAGTCACCTAGTGCAG”, for which the binding signal is 6830 fluorescence intensity (a.u.).
Take “CCACCGTCGGCCGTTCGATTGATTGGGACGTCGTCCGCGACGGAGTCACCTAGTGCAG”: the binding signal is 9280 fluorescence intensity (a.u.).
With “CAGATAACAGATTTCATGGGGCTCAGAGATGCCTCCTCTACGGAGTCACCTAGTGCAG” the figure was 8540 fluorescence intensity (a.u.); with “CTCGATTGATTTCACTCCGCTTCTTCTTCTTCTTCCTCCTCGGAGTCACCTAGTGCAG”, 47000 fluorescence intensity (a.u.).
Turning to “TACCCATTAAGTGTTCAATTATATAATGCATGGCTATTAGCGGAGTCACCTAGTGCAG”, the binding signal was 10900 fluorescence intensity (a.u.).
In the case of “AATTAATAATGATGACCTTCGTCTGTACCGGTTCTTCAAACGGAGTCACCTAGTGCAG”, the binding signal is 3270 fluorescence intensity (a.u.).
In the case of “TCAAAATTGAAAGTTTGGTTGAAATTGAAACGATTCGACACGGAGTCACCTAGTGCAG”, the binding signal was 13900 fluorescence intensity (a.u.).
With “ATTCAATCAGAAACTTGTATACGTCCATATGGTATAACTACGGAGTCACCTAGTGCAG” the figure was 13000 fluorescence intensity (a.u.).
As to “AATCAAATTAATCCATTTTCGAAAAGAAATTAGCTAATACCGGAGTCACCTAGTGCAG”, the binding signal is 9960 fluorescence intensity (a.u.).
As to “CGGGATTGGATCGGGCACGGATATTATCGGATACGAATAGCGGAGTCACCTAGTGCAG”, the binding signal is 7660 fluorescence intensity (a.u.).
With “CTCTGATTTGGATCGTGTCAAACCGACCGACGCACCAAAACGGAGTCACCTAGTGCAG” the figure was 12000 fluorescence intensity (a.u.).
With “CTGACAACTAATATGTTGAATTAATTATTGTCCTATGGCTCGGAGTCACCTAGTGCAG” the figure was 9360 fluorescence intensity (a.u.); with “GGGCTCTGATTATGGGTGCTCCTCCCCAACCAATATAGCACGGAGTCACCTAGTGCAG”, 4310 fluorescence intensity (a.u.); with “TTGACTGAAATATGGACGACGTACCAAAGCATCAATGGCACGGAGTCACCTAGTGCAG”, 7630 fluorescence intensity (a.u.).
For the sequence “GATGTGAGATTGACGGCCCACCAGCGGCCGCATCACCAACCGGAGTCACCTAGTGCAG”, the binding signal is 9410 fluorescence intensity (a.u.).
Consider “TGACAGATGATTAGGTTGACCTTAGTACAACCAAACCCTCCGGAGTCACCTAGTGCAG”, for which the binding signal was 18500 fluorescence intensity (a.u.).
With “GTTTAATTAAAATCCACCAACAATGACAATTTAATAGGTGCGGAGTCACCTAGTGCAG”, the binding signal was 32300 fluorescence intensity (a.u.).
On to “AGTTAATTTTAAGACTTAATTATGAAGTTGATTTTGTGGACGGAGTCACCTAGTGCAG”, for which the binding signal was 33900 fluorescence intensity (a.u.).
In the case of “GTAATAACATGTAATTAATTAAATTTTAACTATTACAAATCGGAGTCACCTAGTGCAG”, the binding signal is 24100 fluorescence intensity (a.u.).
Regarding “ACAGTAGATTGACTATAGTTGAGCACAACGGTAAGGCCGTCGGAGTCACCTAGTGCAG”, the binding signal is 8160 fluorescence intensity (a.u.).
As to “TGCTAGTTAAATTGGGATAAAATAATGGGCCCATTTATTTCGGAGTCACCTAGTGCAG”, the binding signal was 4520 fluorescence intensity (a.u.).
For “TCCGGATTAACTGATTAAGTGCTTAGTTATTGGTGGTGCTCGGAGTCACCTAGTGCAG”, the binding signal is 36100 fluorescence intensity (a.u.).
Turning to “CAACCAATCAAATAAGCAACCTGCATTCTCTTCATTCACTCGGAGTCACCTAGTGCAG”, the binding signal was 11700 fluorescence intensity (a.u.).
